# Data taken from the antibiotic and cytotoxicity screens of Wong et al. (2023).
# Some of the results follow.
# How the values were obtained:
# HSkMC = human skeletal muscle cells; experiment: cytotoxicity call (relative viability < 0.9); details: 10 µM
# HepG2 = experiment: cytotoxicity call (relative viability < 0.9); details: 10 µM
# S. aureus RN4220 = experiment: growth inhibition call (relative growth <= 0.2); details: 50 µM
SMILES,cytotoxicity call (HSkMC),cytotoxicity call (HepG2),growth inhibition call (S. aureus RN4220)
C[C@@H]1CN([C@H](C)CO)C(=O)c2cc(-c3ccc(C(=O)N(C)C)cc3)cnc2O[C@H]1CN(C)C(=O)c1cccnc1,inactive,inactive,inactive
C[C@@H]1CN([C@H](C)CO)C(=O)c2cccc(NS(=O)(=O)c3cn(C)cn3)c2O[C@H]1CN(C)Cc1ccc(C(=O)Nc2ccccc2N)cc1,inactive,inactive,inactive
C[C@H](CO)N1C[C@H](C)[C@H](CN(C)Cc2ccc3c(c2)OCO3)Oc2ccc(NC(=O)c3ccncc3)cc2CC1=O,inactive,inactive,inactive
CC(C)NC(=O)N(C)C[C@@H]1OCCCC[C@@H](C)Oc2ccc(NC(=O)C3CCCCC3)cc2C(=O)N([C@@H](C)CO)C[C@@H]1C,inactive,inactive,inactive
CO[C@H]1C[C@H](O[C@H]2[C@H](C)[C@@H](O[C@H]3O[C@H](C)C[C@H](N(C)C)[C@H]3O)[C@@H](C)C[C@]3(CO3)C(=O)[C@H](C)[C@@H](O)[C@@H](C)[C@@H](C)OC(=O)[C@@H]2C)O[C@@H](C)[C@@H]1O,inactive,inactive,active
COc1ccc(CN(C)C[C@@H]2OCCCC[C@@H](C)Oc3ccc(NC(=O)Nc4ccc5c(c4)OCO5)cc3C(=O)N([C@@H](C)CO)C[C@@H]2C)cc1,inactive,active,inactive
Cc1noc(C)c1NC(=O)N(C)C[C@@H]1OCCCC[C@@H](C)Oc2ccc(NS(=O)(=O)c3ccccc3)cc2C(=O)N([C@@H](C)CO)C[C@H]1C,inactive,inactive,inactive
O=C(/C=C/c1ccccc1)OC[C@H]1O[C@@H](O[C@@H]2CC(C(=O)O)=C[C@@H](O)[C@H]2O)[C@H](O)[C@@H](O)[C@@H]1O,inactive,inactive,inactive
C[C@@H]1CN([C@@H](C)CO)C(=O)Cc2cc(NS(=O)(=O)c3cccs3)ccc2O[C@H]1CN(C)CC1CC1,inactive,inactive,inactive
C[C@H]1CN([C@@H](C)CO)C(=O)Cc2cc(NC(=O)Cc3cn(C)c4ccccc34)ccc2O[C@H]1CN(C)CC1CCCCC1,inactive,inactive,inactive
N=C(N=C(N)N)N1CCOCC1,inactive,inactive,inactive
